From the supplement of paper PMC12217912
The list shows a part of the results. The full chains were built here from the parent and the listed change. Inactive controls read about 0.05.

B1: TEV protease; numbered along this chain (parent)
chain: MGESLFKGPRDYNPISSSICHLTNESDGHTTSLYGIGFGPFIITNKHLFRRNNGTLVVQSLHGVFKVKDTTTLQQHLVDGRDMIIIRMPKDFPPFPQKLKFREPQREERICLVTTNFQTKSMSSMVSDTSCTFPSGDGIFWKHWIQTKDGQCGSPLVSTRDGFIVGIHSASNFTNTNNYFTSVPKNFMELLTNQEAQQWVSGWRLNADSVLWGGHKVFMVKPEEPFQPVKEATQL

Variants of: B1
Test: raw area under fraction-flipped curve 0-4 h after induction (AUC4h, not background-subtracted), DNA-recorder readout of cleavage of the substrate (dimensionless); higher = more cleavage of the substrate by the protease variant
Conditions: temperature: 34 °C; time window: 0-4 h after rhamnose induction
Experimental: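 In vivo DNA recorder in E. coli TOP10(DE3) ΔrhaA at 34 °C. Each TEVp single-site mutant (parent TEVp 0) is paired with a single-site variant of the 7-mer TEVs (canonical ENLYFQ|S). The substrate sits between flexible linkers in a Bxb1-sfGFP-TEVs-SsrA fusion, so cleavage stabilises Bxb1 and speeds flipping of a recombination array, read by NGS. The value is the raw area under the fraction-flipped curve over 0-4 h after rhamnose induction (AUC4h), with ≥20 reads per time point. It is not background-subtracted; inactive controls average about 0.047.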
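Note: Bxb1 expression induced with 0.2% (w/v) L-rhamnose at OD600 near 0.5, cultures sampled hourly, flipped fraction per protease–substrate barcode pair counted by paired-end Illumina sequencing.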

Variant	area with substrate ENLYFAS	area with substrate ENLYFES	area with substrate ENLYFFS	area with substrate ENLYFHS	area with substrate ENLYFIS	area with substrate ENLYFKS	area with substrate ENLYFLS	area with substrate ENLYFMS	area with substrate ENLYFPS	area with substrate ENLYFRS	area with substrate ENLYFTS	area with substrate ENLYFVS	area with substrate ENLYFGS	area with substrate ENLYFWS	area with substrate ENLYFDS	area with substrate ENLYFNS	area with substrate ENLYFYS	area with substrate ENLYFCS	area with substrate ENLYFSS
V229S	0.0633	0.0608	0.0728	0.0546	0.0499	0.0647	0.0652	0.0644	0.0556	0.0686	0.0661	0.0673							
V229T	0.0557		0.0432		0.0629	0.0566	0.0547						0.0667	0.0492					
A196S	0.0684	0.0607			0.0461	0.0412	0.0638	0.0492	0.06	0.059	0.059	0.0573	0.053	0.0488	0.0549	0.066	0.0591		
Q197M	0.0449	0.0631						0.0666						0.07				0.0493	
Q197A	0.0595		0.0772	0.0622	0.0495				0.0475	0.0722	0.0705			0.0515	0.0506	0.064	0.0734	0.0566	0.0635
S171A	0.0619				0.0484				0.0542	0.0608						0.0613			0.0706
L211A	0.0566	0.0645	0.061	0.0577	0.0654			0.0584	0.0581					0.0462					0.0451
G213V	0.0403		0.0644		0.0599	0.052			0.0671		0.0635			0.0597				0.0483	
T233L	0.0664		0.03		0.0651			0.0735		0.0559	0.0542	0.0448	0.062	0.0502		0.0553		0.0535	0.0406
N178G	0.0065	0.0567	0.0615	0.0641	0.0683				0.0525	0.076	0.0616			0.0561					0.0575
F173Y	0.0543	0.08	0.0724	0.0661				0.0667		0.0586	0.068	0.061	0.0619	0.054	0.088		0.0301	0.0607	
S169E	0.0597	0.0767		0.0515	0.0644	0.0639	0.0548	0.0503	0.0678			0.0569			0.0575	0.055		0.0555	
S169P	0.0631	0.0542	0.0568	0.0428	0.0689	0.0754	0.0487		0.0791			0.0509		0.058	0.0665	0.0626		0.0679	0.0608
P225E	0.0645	0.0531	0.0741	0.0497	0.0591		0.0686	0.0624	0.0566	0.05				0.0648				0.0718	0.0642
P225N	0.055		0.0676		0.046	0.0549	0.0605	0.0515		0.0452	0.0554			0.0648		0.0636		0.0665	0.0544
P225H	0.0615	0.0667	0.0787		0.0545	0.0602			0.0653		0.0092			0.0577	0.0491			0.0607	0.0921
